Source: PubChem BioAssay AID1346428 (National Center for Advancing Translational Sciences (NCATS), 2018)
Several values for one entry are separate records, joined by “and”; a condition that tells them apart may be missing. Identical values can stand only once. About 1,200 (2.5%) of roughly 48,000 compounds were called active. About 2% were inconclusive and are not listed.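 Rule for the calls: active = activation of at least 60% and not above a set upper limit (about 1 call in 100 departs from these limits); inconclusive = activation of 40% to 60%, or above that upper limit; inactive = activation under 40%.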 This is one part of the list.
Note: 0% is about no effect.

Each molecule was assayed against Probable G-protein coupled receptor 32 (Homo sapiens) (UniProt O75388) (assay: qHTS for Agonists of Human Resolvin D1 Receptor DRV1). Conditions: CHO-K1 GPR32 beta-arrestin PathHunter luminescence, 90 min; at 76.9 µM; stronger effect = higher value; zero percent set by DMSO-only wells.
Sequence of UniProt O75388 (O75388 whole entry, looked up): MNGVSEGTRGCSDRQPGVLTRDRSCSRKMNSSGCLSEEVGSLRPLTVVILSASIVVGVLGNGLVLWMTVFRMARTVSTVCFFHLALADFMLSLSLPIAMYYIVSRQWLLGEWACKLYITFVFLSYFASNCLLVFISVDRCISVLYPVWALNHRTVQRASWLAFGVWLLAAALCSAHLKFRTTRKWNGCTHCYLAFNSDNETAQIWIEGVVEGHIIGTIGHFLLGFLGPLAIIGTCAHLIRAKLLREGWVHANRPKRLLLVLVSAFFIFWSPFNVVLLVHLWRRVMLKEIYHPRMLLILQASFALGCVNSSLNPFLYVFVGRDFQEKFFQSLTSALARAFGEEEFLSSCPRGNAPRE
How it was run: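 PathHunter beta-arrestin recruitment in CHO-K1 cells stably expressing ProLink-tagged GPR32. Cells were exposed to compound for 90 min at 37 C, then chemiluminescence was read after 1 h detection at ambient temperature; DMSO served as basal control.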
For `CC(=O)N1CCCc2cc(S(=O)(=O)N3CCC(C(=O)NC4CCCCC4)CC3)ccc21`, the activation was inactive: 0.286%. In the case of `CCOC(=O)N1CCC(NC(=O)c2cnn(-c3cccc(C)c3)c2-n2cccc2)CC1`, the activation is reported as inactive: -4.49%. With `Cn1cc[nH]c1=S` the activation was active: 65.4%. For `Cc1ccc(C)c(NC(=O)C(C)N(c2ccccc2)S(C)(=O)=O)c1` (stereo not given), the activation was inactive: -9.17%. For `Cc1oc2ncn(CC(C)C)c(=O)c2c1C(=O)Nc1ccc(Cl)cn1`, the activation was inactive: -5.97%. For `Cc1cccc(-n2cc(-c3ccccc3)nc2SCC(=O)Nc2ccccc2Cl)c1`, the activation was inactive: -25.6%. In the case of `Cc1ccc(C)c(S(=O)(=O)NCC(c2ccc(N(C)C)cc2)N2CCOCC2)c1` (stereo not given), the activation is reported as inactive: -25.6%. `O=C(NCc1ccccc1Cl)C1CCCN(c2nc3ccccc3n3cccc23)C1` (stereo not given) was tested, and the activation was inactive: -22.9%. With `CC(C)c1ccc(NS(=O)(=O)c2ccc3[nH]cc(C(=O)NC4CCCCC4)c(=O)c3c2)cc1` the activation was inactive: -0.234%. In the case of `CCOc1ccc(CNCCNC(=O)c2nonc2N)cc1`, the activation is reported as inactive: -0.0004%. `Cc1cccc(OCCn2nnc3sc4c(c3c2=O)CCCC4)c1` was tested, and the activation was inactive: -18.2%. `CCOC(=O)c1sc(NC(=O)c2nc(SC)ncc2Cl)c(C(=O)OCC)c1C` was tested, and the activation was inactive: -6.2%. In the case of `CC1=C(C(=O)Nc2ccc(C)cc2C)C(c2ccc(C(C)C)cc2)n2nc(C(F)(F)F)nc2N1` (stereo not given), the activation is reported as inactive: -29.6%. `COc1ccc(-n2c(-c3ccc(Cl)cc3)cc3c2CC(C)(C)CC3=O)c(OC)c1` was tested, and the activation was inactive: -24.1%. With `Cc1ccc(NC(=O)Cn2nnc(-c3ccccc3)n2)c(C)c1` the activation was inactive: 20.2%. In the case of `Cc1ccc(NC(=O)CN2C(=O)c3cccnc3Sc3ccccc32)c(Br)c1`, the activation is reported as inactive: -13%. `Cc1ccc(Nc2c3c(nc4nncn24)CCC3)c(C)c1` was tested, and the activation was inactive: -9.77%. For `COc1ccc2c(c1)-c1nc(NC(=O)c3cccc(Br)c3)sc1CC2`, the activation was inactive: -32.2%. `CC1CCN(S(=O)(=O)c2cc(C(=O)N3CCN(c4cccc(Cl)c4)CC3)n(C)c2)CC1` was tested, and the activation was inactive: -2.1%. `O=C(C1COc2ccccc2O1)N(Cc1cccnc1)c1nc2c(F)cccc2s1` (stereo not given) was tested, and the activation was inactive: -13.4%. `CCOC(=O)c1c(NC(=O)c2cc(-c3cccc(Cl)c3)on2)sc(C(C)=O)c1C` was tested, and the activation was inactive: -12.1%. For `COc1ccc(N(CC(=O)N2CCc3ccccc3C2)S(=O)(=O)c2ccccc2)cc1`, the activation was inactive: 0.86%. In the case of `CCOC(=O)c1nnn(C(CC)C(=O)Nc2ccc(F)cc2)c1C(=O)OCC` (stereo not given), the activation is reported as inactive: 10.2%. In the case of `COc1ccccc1C1C(C(=O)N2CCCCC2)=C(C)Nc2nc3ccccc3n21` (stereo not given), the activation is reported as inactive: -5.32%. With `CCOc1ccc(S(=O)(=O)c2cn(CC)c3ccc(F)cc3c2=O)cc1` the activation was inactive: 1.44%. `CSc1ccc(CCNC(=O)Cn2c(C)c3cnn(-c4ccccc4)c(=O)c3c2C)cc1` was tested, and the activation was inactive: 6.23%. `COc1cccc(/C=C/c2nc(C#N)c(NC3CCCCC3)o2)c1` was tested, and the activation was inactive: 49.1%. With `Cc1ccc(CNC(=O)c2ccc(Cn3c(SCc4ccc(F)cc4)nc4cccnc43)cc2)o1` the activation was inactive: -15.9%. For `O=c1n(Cc2ccc(F)cc2)c2ccccc2c2nc(-c3ccccc3)nn12`, the activation was inactive: -0.0545%. For `CCc1cccc(NC(=O)CSc2nnc(-c3cc4occc4n3C)n2-c2ccccc2C)c1`, the activation was inactive: -28%. `Cc1ccc(-n2nc(CO)c(C(=O)NCCC(C)C)n2)cc1C` was tested, and the activation was inactive: -4.08%. With `COc1cccc(-n2c(=O)c3sc4ccccc4c3n(Cc3c(F)cccc3Cl)c2=O)c1` the activation was inactive: 2.79%. With `CCOC(=O)c1c(C)oc2nc(C)nc(NCC3CCN(Cc4cc(C)ccc4C)CC3)c12` the activation was inactive: 5.32%. With `CCCN(C(=O)CCc1nc(-c2ccc(C)cc2)no1)c1ccc(OCC)cc1` the activation was inactive: -34.6%. For `Cc1ccc(N2C(=O)C(CC(=O)Nc3cccc(F)c3)N(CCc3ccccc3F)C2=O)cc1` (stereo not given), the activation was inactive: -19.2%. In the case of `NC1=NCC2c3ccccc3Cc3ccccc3N12` (stereo not given), the activation is reported as inactive: 0.786% and inactive: 7.66%. With `CCc1ccc(OC(=O)CSc2nnc(-c3ccc(OC)c(OC)c3)o2)cc1` the activation was inactive: -9.85%. In the case of `CCNC(=O)c1ccc2c(c1)sc1nc(-c3cccc(OC)c3)cn12`, the activation is reported as inactive: -11.5%. In the case of `CC(Oc1ccccc1)C(=O)Nc1cccc(-c2cn3cccnc3n2)c1` (stereo not given), the activation is reported as inactive: 39.5%. With `O=C(NCCc1ccccc1)c1ccc2c(c1)N(Cc1ccc(F)cc1Cl)C(=O)CS2` the activation was active: 108%. With `Cc1ccc(NC(=O)N2CCC3(CC2)Oc2ccccc2C(=O)N3Cc2ccc(F)cc2)cc1` the activation was inactive: -16.1%. `O=C(O)CCC(=O)O` was tested, and the activation was inactive: 2.99%. `Cc1c2cnn(CC(=O)NC(C)C)c(=O)c2c(C)n1Cc1cccc(Cl)c1` was tested, and the activation was inactive: 4.96%. For `COc1ccc(/C=C/c2nc(C#N)c(NCc3ccc(C)cc3)o2)cc1OC`, the activation was inactive: -20.3%. In the case of `CCOc1ccc(NC(=O)CC2C(=O)N(c3ccccc3)C(=O)N2CCc2sccc2C)cc1` (stereo not given), the activation is reported as inactive: -0.243%. With `O=C(Cn1cc(SCc2cccc(Cl)c2)c2ccccc21)N1CCCCC1` the activation was inactive: -20%. In the case of `CCOc1nc(-c2ccccc2)ccc1-c1noc(-c2ccc(C)cc2)n1`, the activation is reported as inactive: -13.4%. In the case of `Fc1ccc(-c2cc(-c3nc(-c4ccc(Cl)cc4)no3)[nH]n2)cc1`, the activation is reported as inactive: -2.89%. In the case of `COc1ccc(S(=O)(=O)c2c(C(=O)c3ccc(C)c(C)c3)cnc3ccc(C)cc23)cc1`, the activation is reported as inactive: -27.1%. `Cc1c(C(=O)OC2CCC(C)CC2)[nH]c2c1C(=O)CC(c1ccc(N(C)C)cc1)C2` (stereo not given) was tested, and the activation was inactive: -19.3%. `CC(=O)c1ccc(NC(=O)c2nc(-c3ccc(Cl)cc3)n3c2CCCCC3)cc1` was tested, and the activation was inactive: -20.4%. `CC(C)(C)OC(=O)N1CCC(c2c(C(=O)N3CCN(C(=O)c4ccco4)CC3)cnn2-c2cccc(Cl)c2)CC1` was tested, and the activation was inactive: -4.48%. `Cc1ccccc1CSc1nc2c(sc3ccccc32)c(=O)n1CCCC(=O)NCCCOC(C)C` was tested, and the activation was inactive: -15.1%. With `COc1cccc(OCC(=O)NC2CC(=O)N(c3cccc(OC)c3)C2)c1` (stereo not given) the activation was inactive: -8.9%. With `COC(=O)c1cc(NC(=O)CC2C(=O)OCCN2Cc2ccccc2)cc(C(=O)OC)c1` (stereo not given) the activation was inactive: 2.06%.
